Structures are written as SMILES. Among all 310,000 compounds or so, about 14,000 (4.5%) showed an effect of 50% or more. Effects have a minus sign here. Some of the results follow.
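Note: peak tail current of the secondary pulse compared with the same well before compound.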

Chain of human ether-à-go-go-related gene (hERG) potassium channel (Q12809 whole entry, looked up): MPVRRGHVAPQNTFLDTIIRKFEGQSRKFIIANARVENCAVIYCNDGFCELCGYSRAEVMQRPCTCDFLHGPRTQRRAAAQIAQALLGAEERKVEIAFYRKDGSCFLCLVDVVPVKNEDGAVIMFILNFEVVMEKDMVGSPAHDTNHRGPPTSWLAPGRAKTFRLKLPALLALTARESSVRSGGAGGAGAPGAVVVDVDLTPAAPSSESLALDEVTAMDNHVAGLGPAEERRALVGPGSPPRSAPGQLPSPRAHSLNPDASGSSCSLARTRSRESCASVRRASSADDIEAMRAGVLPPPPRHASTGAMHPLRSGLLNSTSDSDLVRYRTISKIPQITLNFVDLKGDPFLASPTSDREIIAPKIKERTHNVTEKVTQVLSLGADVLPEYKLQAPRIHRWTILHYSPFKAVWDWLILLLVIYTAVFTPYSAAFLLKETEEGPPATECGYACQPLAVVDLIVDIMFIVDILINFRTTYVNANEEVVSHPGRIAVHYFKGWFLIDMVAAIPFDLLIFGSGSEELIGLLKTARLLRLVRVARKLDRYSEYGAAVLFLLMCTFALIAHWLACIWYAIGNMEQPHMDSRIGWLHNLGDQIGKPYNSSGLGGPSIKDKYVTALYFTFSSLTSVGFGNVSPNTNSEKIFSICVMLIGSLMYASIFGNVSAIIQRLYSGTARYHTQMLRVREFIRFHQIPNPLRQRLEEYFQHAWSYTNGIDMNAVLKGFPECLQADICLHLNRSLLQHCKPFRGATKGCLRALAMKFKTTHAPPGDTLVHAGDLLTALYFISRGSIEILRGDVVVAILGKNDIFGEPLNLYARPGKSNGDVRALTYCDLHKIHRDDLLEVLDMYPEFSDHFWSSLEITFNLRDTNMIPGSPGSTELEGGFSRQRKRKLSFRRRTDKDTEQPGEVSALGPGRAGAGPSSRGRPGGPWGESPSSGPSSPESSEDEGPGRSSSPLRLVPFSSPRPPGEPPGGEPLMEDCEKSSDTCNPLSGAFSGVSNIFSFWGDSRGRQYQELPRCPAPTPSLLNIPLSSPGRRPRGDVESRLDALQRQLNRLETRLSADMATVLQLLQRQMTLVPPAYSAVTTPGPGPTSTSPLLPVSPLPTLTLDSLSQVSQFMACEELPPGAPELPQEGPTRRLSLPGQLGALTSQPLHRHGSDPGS

This experiment has as its target human ether-à-go-go-related gene (hERG) potassium channel (human, UniProt Q12809). The experiment in a line: primary screen, population patch clamp on CHO cells stably expressing hERG.
Take `CC(C)(C)c1ccc(/C=C/C(=O)Nc2ccncc2)cc1`: the “hERG current change (%, negative = inhibition) at 10uM” value is reported as -2.45%.
In the case of `CC(C)Cc1nnc(NC(=O)c2cc(-c3ccncc3)nc3ccccc23)s1`, the “hERG current change (%, negative = inhibition) at 10uM” value was -20.9%.
Turning to `CSc1c(CC(=O)NCCO)n(C)c2ccccc12`, the “hERG current change (%, negative = inhibition) at 10uM” value is given as 9.12%.
For the compound `CCCn1c(SCC(=O)Nc2nc3ccccc3s2)nc2c1c(=O)n(C)c(=O)n2C`, the “hERG current change (%, negative = inhibition) at 10uM” value is 0.583%.
On to `NC(N)=Nc1ccc(N=C(N)N)cc1`, for which the “hERG current change (%, negative = inhibition) at 10uM” value is recorded as 10.3%.
For `CCN1CCCc2cc(CN(CCN3CCOCC3)C(=S)Nc3ccc(OC)c(Cl)c3)ccc21`, the “hERG current change (%, negative = inhibition) at 10uM” value was -9.09%.
On to `COc1cc2ccccc2cc1C(=O)NC(=S)Nc1cccc(C(=O)O)c1`, for which the “hERG current change (%, negative = inhibition) at 10uM” value is given as 21%.
On to `CCCC(NC(=O)CCc1c(C)c2cc3c(-c4ccccc4)coc3cc2oc1=O)C(=O)O` (centres unmarked), for which the “hERG current change (%, negative = inhibition) at 10uM” value was found to be 4.33%.
For the compound `O=S(=O)(/N=C(/Nc1ccc(Cl)c(S(=O)(=O)Nc2ccccc2Cl)c1)c1ccc(F)cc1)c1ccccc1`, the “hERG current change (%, negative = inhibition) at 10uM” value was determined as 5.21%.
For `CCN(c1ccccc1)S(=O)(=O)c1ccc2c(c1)CC(C)N2C(=O)C1CC1` (centres unmarked) the value was 0.0873%.
For `COc1ccc(OC)c(NC(=O)CSc2nc(-c3ccccc3)cc(=O)[nH]2)c1`, the “hERG current change (%, negative = inhibition) at 10uM” value was 19.9%.
Turning to `CC(C)CN(C(=O)CSc1nnc(-c2cccs2)n1N)c1c(N)n(Cc2ccccc2)c(=O)[nH]c1=O`, the “hERG current change (%, negative = inhibition) at 10uM” value is -8.12%.
Regarding `CC1=NC(C#N)=C(C#N)NC(C)(C)C1`, the “hERG current change (%, negative = inhibition) at 10uM” value is recorded as 9.36%.
For `O=C(CCS(=O)(=O)c1ccc(Cl)cc1)NCCc1c[nH]c2ccccc12` the value was -24.7%; for `S=C(NCC1CCCO1)N1CCN(c2nc(-c3ccc(Cl)cc3)cs2)CC1` (centres unmarked), 3.51%.
With `CCCC(=O)NC(=S)Nc1cccc(-c2nc3ncccc3o2)c1`, the “hERG current change (%, negative = inhibition) at 10uM” value turned out to be 7.33%.
For `Cc1cc2oc(=O)cc(CN(C)Cc3ccccc3)c2cc1C(C)C` the value was 12.1%; for `Cc1ccc(N2C(=O)C3CCCN3C2=S)cc1C` (centres unmarked), 12.8%; for `O=S(=O)(c1ccc(F)cc1)N1CCN(c2nc(-c3cccnc3)nc3ccccc23)CC1`, -72%.
With `Cc1ccnc(NC(=O)C23CC4CC(CC(C4)C2)C3)c1`, the “hERG current change (%, negative = inhibition) at 10uM” value was -0.984%.
As to `CC(C)Nc1nnc(SCC(=O)/C=C2\N(C)c3ccccc3C2(C)C)s1`, the “hERG current change (%, negative = inhibition) at 10uM” value is given as -65.1%.
For `O=C1C=C(/C=C/C2C=CC=CC2)C[C@@H](c2ccc(Cl)cc2)C1` (some centres unmarked), the “hERG current change (%, negative = inhibition) at 10uM” value was -19.8%.
With `COC(=O)c1cccc(NC(=O)CCc2c(C)noc2C)c1`, the “hERG current change (%, negative = inhibition) at 10uM” value is -4.88%.
In the case of `Cc1ccc(CNC(=O)/C=C/c2ccc(S(=O)(=O)N3CCOCC3)cc2)cc1`, the “hERG current change (%, negative = inhibition) at 10uM” value was -9.64%.
`O=C(O)c1ccccc1C(=O)Nc1ccc(Oc2ccc3ccccc3c2)cc1`: the “hERG current change (%, negative = inhibition) at 10uM” value is 5.75%.
Regarding `Cc1nn(CCC(=O)O)c(C)c1C`, the “hERG current change (%, negative = inhibition) at 10uM” value was found to be 5.72%.
`Cc1nc2ccccc2c2oc(C(=O)N3CCc4ccccc4C3)cc12`: the “hERG current change (%, negative = inhibition) at 10uM” value is recorded as -17.6%.
As for `CCSc1ncc(C#N)c(N)n1`, the “hERG current change (%, negative = inhibition) at 10uM” value is recorded as 4.49%.
For `CCN(CC)S(=O)(=O)c1ccc(C(=O)NNC(=O)c2csc(N3CCOCC3)n2)cc1` the value was -9.83%.
For `OC1(C#CCN2CCCC2)c2ccccc2-c2ccccc21`, the “hERG current change (%, negative = inhibition) at 10uM” value is listed as -7.14%.
For `Cc1ccc(C2CC2C(=O)NNC(=S)Nc2ccc(Cl)cc2)cc1` (centres unmarked) the value was -2.87%; for `CCOc1ccccc1/C=C/C(=O)c1ccc(Cl)cc1`, 4.42%.
In the case of `C=CCN1CC(c2nc3ccccc3n2CCOc2ccccc2)CC1=O` (centres unmarked), the “hERG current change (%, negative = inhibition) at 10uM” value was -16.5%.
Regarding `COc1ccc(C(NC(=O)/C=C/c2ccco2)c2ccc(OC)cc2)cc1`, the “hERG current change (%, negative = inhibition) at 10uM” value is listed as -13.3%.
For `Cc1ccc(CC2CC(=O)N(CCc3ccccc3)C2=O)cc1` (centres unmarked) the value was -6%.
Turning to `C[C@@H](C(=O)N1CCN(Cc2ccc3c(c2)OCO3)CC1)n1nnc2ccccc2c1=O`, the “hERG current change (%, negative = inhibition) at 10uM” value is -21.9%.
In the case of `Cc1ccc(N2CC(C(=O)Nc3ccc4c(c3)OCCO4)CC2=O)cc1C` (centres unmarked), the “hERG current change (%, negative = inhibition) at 10uM” value is on record as 3.69%.
Consider `O=C1OC(c2ccc(Cl)cc2)/C(=C(/O)c2ccccc2)C1=O` (centres unmarked), for which the “hERG current change (%, negative = inhibition) at 10uM” value was -2.7%.
For `O=C(O)c1cccc(NS(=O)(=O)c2cc(S(=O)(=O)c3ccc(Cl)cc3)ccc2Cl)c1` the value was -1.34%; for `O=C(Cn1cnc2ccccc2c1=O)NNC(=O)c1ccccc1`, 18.2%.
Turning to `CC(=O)CC(C)(C)S(=O)(=O)c1ccc(NC(C)=O)cc1`, the “hERG current change (%, negative = inhibition) at 10uM” value was 15.1%.
For `COc1ccc(/C=N/NC(=O)c2ccccc2)cc1CN1CCN(c2ccc(F)cc2)CC1` the value was -74.5%; for `COC(=O)c1cccc(-c2ccc(/C=N/N3C(=O)C4C5C=CC(C6CC56)C4C3=O)o2)c1` (centres unmarked), -8.32%.
Consider `O=C(COc1ccc(OCc2ccccc2)cc1)NC1CCOC1=O` (centres unmarked), for which the “hERG current change (%, negative = inhibition) at 10uM” value is given as -0.106%.

(Values after PMC4336329 (PLoS ONE, 2015).)
